Consider 42 sequences from PMC7819943, “Rice protein-binding microarrays: a tool to detect cis-acting elements near promoter regions in rice”.

The list shows a part of the results.

The assay addresses T1, OsWOX13 (Oryza sativa, UniProt Q5QMM3 1-267).
T1 sequence: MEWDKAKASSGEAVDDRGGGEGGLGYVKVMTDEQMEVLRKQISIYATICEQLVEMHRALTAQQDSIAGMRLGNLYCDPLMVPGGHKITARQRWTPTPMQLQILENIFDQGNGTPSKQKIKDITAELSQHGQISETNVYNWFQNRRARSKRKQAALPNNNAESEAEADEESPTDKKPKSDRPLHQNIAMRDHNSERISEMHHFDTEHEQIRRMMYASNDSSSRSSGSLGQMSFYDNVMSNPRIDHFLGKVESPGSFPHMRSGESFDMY
Nature of the assay: protein-binding microarray (RPBM); PBS, 2% BSA, 51.3 ng/ul salmon testes DNA, 50 uM zinc acetate, 200 nM TF, 25 C, 1 h; high values mean tight binding. The following applies: protein: recombinant; tags: N-terminal polyhistidine and DsRed monomer fusion (pET32a); label: CyDye5-dUTP incorporated in the synthesized complementary strand; 3' TTTTT single-stranded linker to array surface; dsDNA, one strand shown. The procedure, abridged:
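Binding signal is reported as fluorescence intensity per feature (arbitrary units) from an Axon 4000B scanner. Incubation used 200 nM of each Ni–NTA-purified, N-terminally polyhistidine- and DsRed-fused transcription factor from E. coli BL21-CodonPlus on a double-stranded custom Agilent array for 1 h at 25 °C, with 50 µM zinc acetate in the buffer, followed by washing.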
Consider “GATCAAACAAATTTATGGGGCGTAGAAGGGATTGGGTGAACGGAGTCACCTAGTGCAG”, for which the binding signal was 3760 fluorescence intensity (a.u.).

For “TTTGCTTAATTAAGAATTTTGAATTTTCTACCGCTATTTCCGGAGTCACCTAGTGCAG”, the binding signal was 20200 fluorescence intensity (a.u.).

For “CTTAAATAACCAATTTAGTATTGAATATAACATATTATTCCGGAGTCACCTAGTGCAG”, the binding signal was 5830 fluorescence intensity (a.u.).

Take “TTCCAATCACATTCTTAGTCAACACCATCCATGCTGTCGACGGAGTCACCTAGTGCAG”: the binding signal is 20700 fluorescence intensity (a.u.).

Consider “ATCATTGGATTAATATATAAATTTACTTTCATATGGTTGTCGGAGTCACCTAGTGCAG”, for which the binding signal was 5320 fluorescence intensity (a.u.).

Turning to “GTCATTTGATTAGCTCTAAAGCTATTTCTATCACTTCTCACGGAGTCACCTAGTGCAG”, the binding signal was 24200 fluorescence intensity (a.u.).

Regarding “AGATTGATTGCCGTGTTCATGCGTAGCCACCGTCCCTAAACGGAGTCACCTAGTGCAG”, the binding signal is 34800 fluorescence intensity (a.u.).

Turning to “CGAGGTTTCTGTTTGTTAATTACTTACCGTGACAGTGAGCCGGAGTCACCTAGTGCAG”, the binding signal was 3760 fluorescence intensity (a.u.).

For the sequence “GCAAATTGAACTCTCTTCTAACGGAAGCATCCTAGCTAGCCGGAGTCACCTAGTGCAG”, the binding signal is 21800 fluorescence intensity (a.u.).

With “CACCAGATTGGGACGTCAATCCTACCCGTGGTATGGGTATCGGAGTCACCTAGTGCAG”, the binding signal was 19000 fluorescence intensity (a.u.).

Consider “TTACCAAATTTCACTGTTAACAGCGGTGCGTGGGTATTGACGGAGTCACCTAGTGCAG”, for which the binding signal was 6390 fluorescence intensity (a.u.).

On to “ACATTGTTAAATCATGGCCTAATTAGACTTAAAAGATTCACGGAGTCACCTAGTGCAG”, for which the binding signal is 10400 fluorescence intensity (a.u.).

With “ATATGAAATTACTTAATCTAATTCAAAATATAACCACATGCGGAGTCACCTAGTGCAG”, the binding signal is 8360 fluorescence intensity (a.u.).

For the sequence “AATTCGTACTGATTGGGCGATTGGCTGGTGGTAGTATTATCGGAGTCACCTAGTGCAG”, the binding signal is 21000 fluorescence intensity (a.u.).

“TGAAACCACAATTGATGTTAACACATAAATTTCTTCCCTTCGGAGTCACCTAGTGCAG”: the binding signal was 5390 fluorescence intensity (a.u.).

For “TTTTGATTAGTTTAGGGACACCGGATATCTGGTTTTGTGGCGGAGTCACCTAGTGCAG”, the binding signal is 50700 fluorescence intensity (a.u.).

Turning to “GATAGGATTAGATGAAAGGTTGACTGACTGCTCAAGCGATCGGAGTCACCTAGTGCAG”, the binding signal is 7750 fluorescence intensity (a.u.).

Regarding “ACATTTCTTGTTCAATTGACAGATCTTGAGAAAAGGAAGGCGGAGTCACCTAGTGCAG”, the binding signal is 5360 fluorescence intensity (a.u.).

Regarding “ACGTCAAACTAATCATGCATACCGATCGCGTCAATGCAAGCGGAGTCACCTAGTGCAG”, the binding signal is 3300 fluorescence intensity (a.u.).

On to “CTTATGCTAATTTGGCTATCTTCAAGAGGTCTGTTTGCAACGGAGTCACCTAGTGCAG”, for which the binding signal was 3580 fluorescence intensity (a.u.).

Take “TGATAGGAAAATAATTAATAATTATTTAAATATTTTAAATCGGAGTCACCTAGTGCAG”: the binding signal was 7330 fluorescence intensity (a.u.).

Take “ATTCTGATTGGCTCCTCCTGTAGGAATTAGGATTTAGGAGCGGAGTCACCTAGTGCAG”: the binding signal is 35700 fluorescence intensity (a.u.).

As to “ATCTATTTATTTCTAATTTACAATTATAAATGATGTGGTGCGGAGTCACCTAGTGCAG”, the binding signal is 26300 fluorescence intensity (a.u.).

With “GTGCCAAATTTGCTTCCTCCTCCCTTTCAACATGGTTCGTCGGAGTCACCTAGTGCAG”, the binding signal was 3380 fluorescence intensity (a.u.).

Take “TATAAACAGGTTGATAAACTAGTCGAACTACGGATATGAACGGAGTCACCTAGTGCAG”: the binding signal was 4630 fluorescence intensity (a.u.).

Turning to “TATTAAGCCTAATTAAATATCATTAATAAATATTTACTGTCGGAGTCACCTAGTGCAG”, the binding signal was 3800 fluorescence intensity (a.u.).

As to “AATAAACGGGTTGATGACTTGATGTTAAGAAGACCATGAACGGAGTCACCTAGTGCAG”, the binding signal is 3290 fluorescence intensity (a.u.).

Take “ACCACTAATCAATCCTGTTCGGTGCATGCTCTCCCGTAACCGGAGTCACCTAGTGCAG”: the binding signal was 10700 fluorescence intensity (a.u.).

In the case of “CTTAATTATATGGTTGGGAAAATGCCTTTAATAATCCCTGCGGAGTCACCTAGTGCAG”, the binding signal was 38200 fluorescence intensity (a.u.).

As to “CCTTGACGGTAGCGGTGATGGTAACAGAAAATTGGACGGCCGGAGTCACCTAGTGCAG”, the binding signal is 3410 fluorescence intensity (a.u.).

For the sequence “CAAAGCAATTATTGGCAGCGTGATCGGATTGGCGGAAAACCGGAGTCACCTAGTGCAG”, the binding signal was 22000 fluorescence intensity (a.u.).

For “ACTACATGACAGGGAATTGTTGTTCCTTGGTGATCAACCACGGAGTCACCTAGTGCAG”, the binding signal was 3360 fluorescence intensity (a.u.).

Turning to “GCAGGCAATCACACACACATATTTATCACGAGAAAGAGTACGGAGTCACCTAGTGCAG”, the binding signal was 8850 fluorescence intensity (a.u.).

Consider “AATAACAATTGATTCGTATACAGGGAGCTTGCGCGTTCGACGGAGTCACCTAGTGCAG”, for which the binding signal is 8370 fluorescence intensity (a.u.).

As for “CTCCGGCCAATCACCGCCGCTGTCGTTGCGTTCGCCGGCGCGGAGTCACCTAGTGCAG”, the binding signal was 16700 fluorescence intensity (a.u.).

With “CAAACAAATAACAAATTTGCTTTTAACATAAATTCAGGGGCGGAGTCACCTAGTGCAG”, the binding signal is 5210 fluorescence intensity (a.u.).

Regarding “TTAATTGATCAATAATCACTGTTCCTTCTCAAGTAGTCAACGGAGTCACCTAGTGCAG”, the binding signal is 64600 fluorescence intensity (a.u.).

For “GGTAATTGTTGATAGATACGATATTACTAATTCTGGTATTCGGAGTCACCTAGTGCAG”, the binding signal is 40700 fluorescence intensity (a.u.).

On to “GCATATTATAATATTTTGATTAATGATAAATCGAGTAACACGGAGTCACCTAGTGCAG”, for which the binding signal is 6600 fluorescence intensity (a.u.).

On to “ATATGATTGGAACTAATCCTACCATACCATAACAACTGGACGGAGTCACCTAGTGCAG”, for which the binding signal was 30600 fluorescence intensity (a.u.).

For “TCTTTACTGATGTATAATAATTAACATTGCAAATAATTTACGGAGTCACCTAGTGCAG”, the binding signal is 8470 fluorescence intensity (a.u.).

In the case of “AATCACGGACTAATTAGGCTTAAAAGATTCGTCTCGCGATCGGAGTCACCTAGTGCAG”, the binding signal was 10700 fluorescence intensity (a.u.).
